For the assay, the target named is T1, GST-Bem1 (S. cerevisiae), P29366.
T1 chain: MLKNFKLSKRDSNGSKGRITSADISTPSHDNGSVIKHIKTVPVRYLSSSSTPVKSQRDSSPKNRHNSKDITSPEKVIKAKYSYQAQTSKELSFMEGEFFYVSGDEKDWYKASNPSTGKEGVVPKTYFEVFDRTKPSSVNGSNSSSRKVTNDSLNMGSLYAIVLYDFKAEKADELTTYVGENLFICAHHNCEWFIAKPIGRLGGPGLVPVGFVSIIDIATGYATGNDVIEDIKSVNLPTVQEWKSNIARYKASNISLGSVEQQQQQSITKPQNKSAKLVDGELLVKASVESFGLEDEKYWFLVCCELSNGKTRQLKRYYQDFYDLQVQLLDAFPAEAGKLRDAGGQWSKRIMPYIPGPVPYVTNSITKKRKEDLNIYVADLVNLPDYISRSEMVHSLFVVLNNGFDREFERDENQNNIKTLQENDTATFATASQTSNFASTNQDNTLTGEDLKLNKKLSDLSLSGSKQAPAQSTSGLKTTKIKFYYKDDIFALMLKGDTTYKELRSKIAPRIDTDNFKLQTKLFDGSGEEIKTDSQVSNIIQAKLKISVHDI
The assay is described as follows: pull-down; GST or GST fusions induced with 2% galactose for 4 h in yeast co-expressing 3HA-Msb1 (strains YEF473A wild type or YEF1395 msb1Δ, endogenous BOI1 and BOI2 present); glutathione-Sepharose beads from Triton X-100-solubilized cell lysates; anti-HA blot. The conditions noted are these: remark: other sources report otherwise.

No constants are given. Whether binding was seen depends on the method and setting. Binding seen in cells or lysates may run through a third protein. Sequences can lack the tags named with a protein.

B1: Msb1 tagged with three copies of HA at its N-terminus, P21339 1-1137 (protein)
chain: MNDMAKPLPTPPTAEIRKSRSNSPKKAQKTNLSPNKNQNNEKNVPRSNGRTKNEHNSMDDEEFEFFHQFSREKVKGVIHVITAELKEKGPDVEFLMIPFRPEQTNDKLLTLLNQLFPLGNGQPVNEKKQLRIVSKADVWTLFQCLKYIWCRLPNSEIIGWKSYLEFKFREEDKKFPRKSFLEIMPQCLASPNHASIVYDFFDLIISISSNSRVNKMSARKISKMCAIWAFSKQIPNSDIQDYDFESAAMKSFAPNNSIQDGLDQWIPASDAMFHLLLAFLRSFVPQDLESAKLPRTLKSLLFNNQYPPRKSTAYTSETILTIPLVTLKTDVFSRKPWQLLERCNDLLDFSDHDAFEAREDYALLKSLFRKKNTVEGISRKMSQESRRLMKAMSTKHSTFQPGWAPRECIENISHLKECIEVKRLDIDDYFIWTWLSSLSFEQTSEKKKIFGRSIILEFEFDGFKKWVVFQECDITLDYNKKGQLKKKTSAQSPTTEKELPPDDFELEDPPLSKSPTLSQTYKKFQAEVPQQSTVRRDSAPDNQGIYHTVISKNALTKNKHNVNLHSFEHKISKWNPLNNLRKKSGSNSSSSSFEEKSKDAPIREEYHTNKNHKSKKEERVLSQFSTLNPDEYQLPVIETGSSNFKIEIPELMYEHDDDDSDKLKNSQKRATDSAIEELNGMVEEMMINEPDDVKISITEAETFESLTKFDQYKPSNITDDDLQSSHSSAVHSLKLSTNTNDSCADSSKYTADRKLAEPRKISEESKVNDDSSSYYSPNINNLPASRMPSQPTYSNSDSKKAFTNESRLNVLQGAVSPSQQVTPKPYKNAPGDCVSPVQQKYYQNDRRNEMSPASAPVPPSAYSPARSPQFSTNSAGFKQNTINVPVGYNDPAHVLANQPHMTYRDQHNYPSHQQKQRPFQNNIVPPELKSRNQRADASPIPQHMVPVKQGVPNLPSNVPLYQQMERMNPNHQHPVNTYKVTQPPYHNNTTNAYGNSRAGNAHMLDGKWSNNPPQMVPKGVRPNQYPQQHVNRYSPQAQPVVPAEYYNGPPPMRAPPMMSHMVPAQEPIRYTAGANRRSFPQGMQQNAYSVPAQPMGAVNSEFYLPEAPQGNKLHGNINKRQERKKLYDNIRSGNFGI
As for B1, the binding entry was “no binding”.

Values taken from paper PMC3681933.
